According to paper PMC5785034:
No constants are given. Whether binding was seen depends on the method and setting. For part of these data: In cells and extracts the contact can be indirect. Some entries that bind do so weakly or less than the wild type. Tags and fused reporters may be left off the sequences shown.

B1: PEPPER (PEP), BiFC fusion (protein, UniProt Q9SZH4 1-495)
chain: MAAVADSVENNGSINLPENENLIPAGFSAAALLDENSGAFPELNQPDSLAAAETTFPDTNDSAEERWPGWPGDCVFRMIVPVTKVGAIIGRKGDFIKKMCEETRARIKVLDGPVNTPDRIVLISGKEEPEAYMSPAMDAVLRVFRRVSGLPDNDDDDVQNAGSVFSSVRLLVASTQAINLIGKQGSLIKSIVENSGASVRILSEEETPFYAAQDERIVDLQGEALKILKALEAIVGHLRRFLVDHTVVPLFEKQYLARVSQTRQEEPLAESKSSLHTISSNLMEPDFSLLARREPLFLERDSRVDSRVQPSGVSIYSQDPVLSARHSPGLARVSSAFVTQVSQTMQIPFSYAEDIIGVEGANIAYIRRRSGATITIKESPHPDQITVEIKGTTSQVQTAEQLIQEFIINHKEPVSVSGGYARIDSGYVPAYPPQLSNRQEPLPSTYMGTEPVQYRPTAYSQLGGPSTYTPTLTGQTYGSEYRPASDVGGYSSYNL
B2: PEPPER (PEP), yeast two-hybrid fusion (protein, UniProt Q9SZH4 1-495)
chain: B1 chain
B3: HUA1, BiFC fusion (protein, UniProt Q941Q3 1-524)
chain: MAHRQLYSYALQPSYAAAASTVSPAPPPPQQPLPPKTGLSSLYGSSADHYFPDTTYRFLARDGSEALSNYSGTLASSSSMYHHLPNTTASHLAYPQLLQHQEVAWPPGVEVPGAASAVEPLPPGVKRTSEALYYPTLLGAHNTIGQTEAWYTTDYFTKRPKLESTSHLPIYPQRAGEKDCTHYMQTRTCKFGESCRFDHPIWVPEGGIPDWKEAPVVPNEEYPERPGEPDCPYYIKTQRCKYGSKCKFNHPREEAAVSVETQDSLPERPSEPMCTFYMKTGKCKFGLSCKFHHPKDIQLPSSSQDIGSSVGLTSEPDATNNPHVTFTPALYHNSKGLPVRSGEVDCPFYLKTGSCKYGATCRYNHPERTAFIPQAAGVNYSLVSSNTANLNLGLVTPATSFYQTLTQPTLGVISATYPQRPGQSECDYYMKTGECKFGERCKFHHPADRLSAMTKQAPQQPNVKLSLAGYPRREGALNCPYYMKTGTCKYGATCKFDHPPPGEVMAKTTSEADAAGATNTDTTQ
B4: HUA1, yeast two-hybrid fusion (protein, UniProt Q941Q3 1-524)
chain: B3 chain
B5: REGULATOR OF GENE EXPRESSION 3 (RCF3), BiFC fusion (protein, UniProt Q8W4B1 1-652)
chain: MERSRSKRNYHYDQDYDGDSMPRSKPRYNNNYHFGGGGGGNNRYRGGGGGGGGNGRPSKSHPETMATTTYRILCHDAKAGGVIGKSGTIIKSIRQHTGAWINVHELVPGDAERIIEISDNRRRDPDGRMPSFSPAQEALFSVHDRILESEAQFGYGGPPPEEEEDYGGVRPGGGRVVTRLVVSRMHVGCLLGKGGKIIEQMRIETKTHIRILPRESNLPRCVSLSEEIVQIVGELNAVKNALAIVSSRLRESQHRDRSNFQGRSHSPERSFAAAGDDYMPQLRRQSSDRFPRGNFRNNNFSSRQSNYAEEAPAVPVGENVYSEELVFQILCPADKIVRVVGESQGIIDLLQNEIGVDVRVSDPVAGSDEQIITISSEEAPDDPFFPAQEALLHIQTQIIDLIPDKDNLITTRLLVPSRDSICLEGKAGSVSEISRLTGTSVQILAREEIPRCASINDVVIQITGEIRAAREALVELTLLLRSHMFKELSQKETPPASTSTTGPLEGVAGVMEVASSNNTIQSREGPTSSNLNLQQVSTILPQFKEGFGSVAKAGESEHREEVPVTTSRMAVPLVTRSTLEVVLPEAVVPKLVTKSRNKLAQISEWSGASVTIVEDRPEETQNIIRISGTPEQAERAQSLLQGFILSIQEDGP
B6: REGULATOR OF GENE EXPRESSION 3 (RCF3), yeast two-hybrid fusion (protein, UniProt Q8W4B1 1-652)
chain: B5 chain

How the values were obtained:
[1] = biological target: T1, B3 transcription factor from the ARF5 (Auxin Response Factor 5), BiFC fusion (UniProt P93024); test: split reporter; BiFC in Nicotiana benthamiana leaf cells agroinfiltrated with YFPct and YFPnt fusions; fluorescence visualized 72 h after inoculation; reciprocal orientations also performed
T1 sequence: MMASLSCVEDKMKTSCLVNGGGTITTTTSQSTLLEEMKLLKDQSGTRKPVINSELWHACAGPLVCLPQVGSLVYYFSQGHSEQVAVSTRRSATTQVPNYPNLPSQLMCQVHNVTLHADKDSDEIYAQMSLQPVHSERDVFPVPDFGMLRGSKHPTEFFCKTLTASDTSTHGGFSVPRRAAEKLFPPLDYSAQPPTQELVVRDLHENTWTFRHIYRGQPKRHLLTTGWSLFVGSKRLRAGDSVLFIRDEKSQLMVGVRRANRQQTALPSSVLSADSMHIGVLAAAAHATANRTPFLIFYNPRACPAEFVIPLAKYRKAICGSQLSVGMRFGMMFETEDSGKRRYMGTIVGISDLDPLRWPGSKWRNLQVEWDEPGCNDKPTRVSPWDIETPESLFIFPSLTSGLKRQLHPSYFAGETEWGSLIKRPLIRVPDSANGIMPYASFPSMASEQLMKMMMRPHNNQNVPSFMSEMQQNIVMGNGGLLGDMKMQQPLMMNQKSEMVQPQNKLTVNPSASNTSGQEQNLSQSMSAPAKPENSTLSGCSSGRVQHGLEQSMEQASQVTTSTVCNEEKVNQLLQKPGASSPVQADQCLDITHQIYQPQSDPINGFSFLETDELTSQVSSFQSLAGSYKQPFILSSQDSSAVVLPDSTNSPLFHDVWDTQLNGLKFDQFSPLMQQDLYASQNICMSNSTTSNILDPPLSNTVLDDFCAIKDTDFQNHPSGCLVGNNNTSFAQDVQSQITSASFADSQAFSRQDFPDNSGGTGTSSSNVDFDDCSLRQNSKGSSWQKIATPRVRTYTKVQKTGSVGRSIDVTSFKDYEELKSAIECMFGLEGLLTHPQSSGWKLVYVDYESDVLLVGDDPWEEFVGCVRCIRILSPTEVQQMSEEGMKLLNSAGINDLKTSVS

[2] = biological target: T2, C-TERMINAL DOMAIN PHOSPHATASE-LIKE1 (CPL1), BiFC fusion (Arabidopsis thaliana) (UniProt Q5YDB6); test: as above
T2 sequence: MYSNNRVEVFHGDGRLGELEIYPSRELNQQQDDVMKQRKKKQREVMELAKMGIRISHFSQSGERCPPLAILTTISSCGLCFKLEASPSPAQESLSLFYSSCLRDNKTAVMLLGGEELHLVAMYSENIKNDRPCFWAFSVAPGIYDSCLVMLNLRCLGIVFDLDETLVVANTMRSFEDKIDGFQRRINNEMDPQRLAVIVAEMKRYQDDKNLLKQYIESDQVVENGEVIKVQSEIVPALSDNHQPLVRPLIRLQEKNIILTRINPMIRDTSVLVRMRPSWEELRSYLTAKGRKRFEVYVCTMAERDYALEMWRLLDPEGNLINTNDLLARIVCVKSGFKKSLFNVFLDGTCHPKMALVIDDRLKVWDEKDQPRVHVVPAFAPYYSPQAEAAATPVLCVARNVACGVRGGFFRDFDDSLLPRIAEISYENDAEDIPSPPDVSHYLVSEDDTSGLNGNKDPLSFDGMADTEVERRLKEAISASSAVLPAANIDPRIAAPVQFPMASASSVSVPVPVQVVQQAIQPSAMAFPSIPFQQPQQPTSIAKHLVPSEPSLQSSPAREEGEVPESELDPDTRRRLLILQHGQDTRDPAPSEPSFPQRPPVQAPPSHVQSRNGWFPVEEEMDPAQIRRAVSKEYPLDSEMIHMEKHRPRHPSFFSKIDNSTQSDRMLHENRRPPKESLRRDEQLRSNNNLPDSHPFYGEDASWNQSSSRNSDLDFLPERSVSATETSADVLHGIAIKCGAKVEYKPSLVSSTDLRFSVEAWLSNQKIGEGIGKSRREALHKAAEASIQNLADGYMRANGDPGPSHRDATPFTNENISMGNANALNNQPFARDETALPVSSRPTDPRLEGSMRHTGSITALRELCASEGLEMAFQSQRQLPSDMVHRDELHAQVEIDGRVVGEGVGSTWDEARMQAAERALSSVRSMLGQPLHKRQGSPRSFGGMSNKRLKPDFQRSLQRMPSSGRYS

[3] = biological target: T3, C-TERMINAL DOMAIN PHOSPHATASE-LIKE1 (CPL1), yeast two-hybrid fusion (Arabidopsis thaliana) (UniProt Q5YDB6); test: two-hybrid; yeast strain EGY48 cotransformed with pGilda and pB42AD constructs; induction with galactose and raffinose; X-gal on plates and ONPG beta-galactosidase liquid assays
T3 sequence: T2 sequence

| Binder | binding [1] | binding [2] | binding [3] |
| --- | --- | --- | --- |
| B1 | no binding | binds | – |
| B2 | – | – | binds |
| B3 | no binding | binds | – |
| B4 | – | – | binds |
| B5 | no binding | binds | – |
| B6 | – | – | binds |
